Source: US7517874B2 (priority 2007, dated 2009)

Target: human CB2 receptor (hCB2) (Homo sapiens, UniProt P34972)
Experiment: cell-based
Assay type: cell-based
Details: for +/− HCB2: agonist or inverse agonist at hCB2

Chain of human CB2 receptor (hCB2) (P34972 whole entry): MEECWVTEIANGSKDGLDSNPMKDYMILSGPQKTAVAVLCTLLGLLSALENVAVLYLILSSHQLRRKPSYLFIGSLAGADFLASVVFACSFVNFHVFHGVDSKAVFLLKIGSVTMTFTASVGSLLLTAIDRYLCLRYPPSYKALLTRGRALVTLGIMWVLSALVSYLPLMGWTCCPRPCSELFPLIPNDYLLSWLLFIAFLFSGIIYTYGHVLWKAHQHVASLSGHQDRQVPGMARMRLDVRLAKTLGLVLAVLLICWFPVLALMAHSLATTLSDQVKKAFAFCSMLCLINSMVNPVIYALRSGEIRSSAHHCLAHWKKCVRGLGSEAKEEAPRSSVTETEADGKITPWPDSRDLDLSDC

CC(C)CN1CCn2c(-c3ccccc3)nc(C(=O)N[C@H](C(=O)N(C)C)C(C)(C)C)c2C1 [Compound 80, (S)-N-(1-(dimethylamino)-3,3-dimethyl-1-oxobutan-2-yl)-7-isobutyl-3-phenyl-5,6,7,8-tetrahydroimidazo[1,5-a]pyrazine-1-carboxamide]
EC50: > 10000 nM

CNC(=O)[C@@H](NC(=O)c1nc(-c2ccccn2)n2c1CN(C)CCC2)C(C)(C)C [Compound 395, (S)-N-(3,3-dimethyl-1-(methylamino)-1-oxobutan-2-yl)-8-methyl-3-(pyridin-2-yl)-6,7,8,9-tetrahydro-5H-imidazo[1,5-a][1,4]diazepine-1-carboxamide]
+/− HCB2: +

CC(C)CCNC(=O)c1nc(-c2ccc(Cl)cc2)n2c1CN(C(=O)c1ccccc1)CC2 [Compound 130, 7-benzoyl-3-(4-chlorophenyl)-N-isopentyl-5,6,7,8-tetrahydroimidazo[1,5-a]pyrazine-1-carboxamide]
EC50: > 10000 nM

CN1CCCn2c(-c3cc(Cl)ccc3F)nc(C(=O)N[C@H](C(=O)N(C)C)C(C)(C)C)c2C1 [Compound 559, (S)-3-(5-chloro-2-fluorophenyl)-N-(1-(dimethylamino)-3,3-dimethyl-1-oxobutan-2-yl)-8-methyl-6,7,8,9-tetrahydro-5H-imidazo[1,5-a][1,4]diazepine-1-carboxamide]
+/− HCB2: +

CC(C)NC(=O)N1CCn2c(-c3ccccc3)nc(C(=O)NC3C4(C)CCC(C4)C3(C)C)c2C1 (centres unmarked) [Compound 171, N7-isopropyl-3-phenyl-N1-(1,3,3-trimethylbicyclo[2.2.1]heptan-2-yl)-5,6-dihydroimidazo[1,5-a]pyrazine-1,7(8H)-dicarboxamide]
+/− HCB2: +

CNC(=O)[C@H](CC(C)(C)C)NC(=O)c1nc(-c2cccc(F)c2)n2c1CN(C)CCC2 [Compound 548, (S)-N-(4,4-dimethyl-1-(methylamino)-1-oxopentan-2-yl)-3-(3-fluorophenyl)-8-methyl-6,7,8,9-tetrahydro-5H-imidazo[1,5-a][1,4]diazepine-1-carboxamide]
+/− HCB2: +

CN1CCn2c(-c3ccccc3)nc(C(=O)N[C@H](c3nc(C(C)(C)C)no3)C(C)(C)C)c2C1 [Compound 283, (S)-N-(1-(3-tert-butyl-1,2,4-oxadiazol-5-yl)-2,2-dimethylpropyl)-7-methyl-3-phenyl-5,6,7,8-tetrahydroimidazo[1,5-a]pyrazine-1-carboxamide]
+/− HCB2: +

CNC(=O)[C@@H](NC(=O)c1nc(-c2ccccc2)n2c1CN(Cc1cncnc1)CC2)C(C)(C)C [Compound 62, (S)-N-(3,3-dimethyl-1-(methylamino)-1-oxobutan-2-yl)-3-phenyl-7-(pyrimidin-5-ylmethyl)-5,6,7,8-tetrahydroimidazo[1,5-a]pyrazine-1-carboxamide]
+/− HCB2: −

CN1CCn2c(-c3ccccc3)nc(C(=O)NCC3OCCO3)c2C1 [Compound 234, N-((1,3-dioxolan-2-yl)methyl)-7-methyl-3-phenyl-5,6,7,8-tetrahydroimidazo[1,5-a]pyrazine-1-carboxamide]
EC50: > 10000 nM

CC12CCC(C1)C(C)(C)C2NC(=O)c1nc(-c2ccccc2)n2c1CN(C(=O)C1CCOC1)CC2 (centres unmarked) [Compound 121, 3-phenyl-7-(tetrahydrofuran-3-carbonyl)-N-(1,3,3-trimethylbicyclo[2.2.1]heptan-2-yl)-5,6,7,8-tetrahydroimidazo[1,5-a]pyrazine-1-carboxamide]
+/− HCB2: +

CCc1nc(C(=O)N[C@H](C(=O)NC)C(C)(C)C)c2n1CCCN(C)C2 [Compound 492, (S)-N-(3,3-dimethyl-1-(methylamino)-1-oxobutan-2-yl)-3-ethyl-8-methyl-6,7,8,9-tetrahydro-5H-imidazo[1,5-a][1,4]diazepine-1-carboxamide]
+/− HCB2: +

CN1CCCn2c(-c3cc(Cl)c(F)cc3F)nc(C(=O)N[C@H](C(N)=O)C(C)(C)C)c2C1 [Compound 580, (S)-N-(1-amino-3,3-dimethyl-1-oxobutan-2-yl)-3-(5-chloro-2,4-difluorophenyl)-8-methyl-6,7,8,9-tetrahydro-5H-imidazo[1,5-a][1,4]diazepine-1-carboxamide]
+/− HCB2: +

O=C(NC1CCCCC1)c1nc(-c2ccccc2)n2c1CN(C(=O)c1ccoc1)CC2 [Compound 138, N-cyclohexyl-7-(furan-3-carbonyl)-3-phenyl-5,6,7,8-tetrahydroimidazo[1,5-a]pyrazine-1-carboxamide]
EC50 (groups >100 nM-10 μM and >10 μM, cAMP, CHO-K1 hCB2, read-out: EC50 HCB2): > 10000 nM

CNC(=O)[C@@H](NC(=O)c1nc(-c2cccnc2)n2c1CN(C)CC2)C(C)(C)C [Compound 252, (S)-N-(3,3-dimethyl-1-(methylamino)-1-oxobutan-2-yl)-7-methyl-3-(pyridin-3-yl)-5,6,7,8-tetrahydroimidazo[1,5-a]pyrazine-1-carboxamide]
+/− HCB2: +

CNC(=O)[C@@H](NC(=O)c1nc(-c2cc(F)cc(C(N)=O)c2)n2c1CN(C)CCC2)C(C)(C)C [Compound 416, (S)-3-(3-carbamoyl-5-fluorophenyl)-N-(3,3-dimethyl-1-(methylamino)-1-oxobutan-2-yl)-8-methyl-6,7,8,9-tetrahydro-5H-imidazo[1,5-a][1,4]diazepine-1-carboxamide]
+/− HCB2: +

CNC(=O)[C@@H](NC(=O)c1nc(/C=C/C2CCCCC2)n2c1CN(C)CCC2)C(C)(C)C [Compound 439]
+/− HCB2: +

CNC(=O)[C@@H](NC(=O)c1nc(-c2ccc(N3CCOCC3)cc2)n2c1CN(C)CCC2)C(C)(C)C [Compound 378, (S)-N-(3,3-dimethyl-1-(methylamino)-1-oxobutan-2-yl)-8-methyl-3-(4-morpholinophenyl)-6,7,8,9-tetrahydro-5H-imidazo[1,5-a][1,4]diazepine-1-carboxamide]
EC50: > 10000 nM

CNC(=O)[C@@H](NC(=O)c1nc(-c2cccc(C#N)c2)n2c1CN(C)CC2)C(C)(C)C [Compound 260, (S)-3-(3-cyanophenyl)-N-(3,3-dimethyl-1-(methylamino)-1-oxobutan-2-yl)-7-methyl-5,6,7,8-tetrahydroimidazo[1,5-a]pyrazine-1-carboxamide]
+/− HCB2: +

Cc1nnc(C)n1C1CCN(C(=O)c2nc(-c3ccc(Cl)cc3F)n3c2CN(C)CC3)CC1 [Compound 223, (3-(4-chloro-2-fluorophenyl)-7-methyl-5,6,7,8-tetrahydroimidazo[1,5-a]pyrazin-1-yl)(4-(3,5-dimethyl-4H-1,2,4-triazol-4-yl)piperidin-1-yl)methanone]
EC50: > 10000 nM

CNC(=O)[C@@H](NC(=O)c1nc(-c2cccc(NS(C)(=O)=O)c2)n2c1CN(C)CCC2)C(C)(C)C [Compound 421, (S)-N-(3,3-dimethyl-1-(methylamino)-1-oxobutan-2-yl)-8-methyl-3-(3-(methylsulfonamido)phenyl)-6,7,8,9-tetrahydro-5H-imidazo[1,5-a][1,4]diazepine-1-carboxamide]
EC50: > 10000 nM

CNC(=O)[C@@H](NC(=O)c1nc(-c2ccccc2)n2c1CN(C(=O)Nc1ccccc1)CC2)C(C)(C)C [Compound 194, (S)-N1-(3,3-dimethyl-1-(methylamino)-1-oxobutan-2-yl)-N7,3-diphenyl-5,6-dihydroimidazo[1,5-a]pyrazine1,7-(8H)-dicarboxamide]
+/− HCB2: +

CNC(=O)[C@@H](NC(=O)c1nc(-c2ccc(C)c(F)c2)n2c1CN(C)CCC2)C(C)(C)C [Compound 360, (S)-N-(3,3-dimethyl-1-(methylamino)-1-oxobutan-2-yl)-3-(3-fluoro-4-methylphenyl)-8-methyl-6,7,8,9-tetrahydro-5H-imidazo[1,5-a][1,4]diazepine-1-carboxamide]
+/− HCB2: +

CNC(=O)[C@@H](NC(=O)c1nc(-c2cc(C)ccc2F)n2c1CN(C)CCC2)C(C)(C)C [Compound 362, (S)-N-(3,3-dimethyl-1-(methylamino)-1-oxobutan-2-yl)-3-(2-fluoro-5-methylphenyl)-8-methyl-6,7,8,9-tetrahydro-5H-imidazo[1,5-a][1,4]diazepine-1-carboxamide]
+/− HCB2: +

CNC(=O)[C@@H](NC(=O)c1nc(-c2ccsc2)n2c1CNCC2)C(C)(C)C [Compound 11, (S)-N-(3,3-dimethyl-1-(methylamino)-1-oxobutan-2-yl)-3-(thiophen-3-yl)-5,6,7,8-tetrahydroimidazo[1,5-a]pyrazine-1-carboxamide]
+/− HCB2: +

CNC(=O)[C@H](Cc1cscn1)NC(=O)c1nc(-c2cc(F)c(F)cc2F)n2c1CN(C)CCC2 [Compound 592, (S)-8-methyl-N-(1-(methylamino)-1-oxo-3-(thiazol-4-yl)propan-2-yl)-3-(2,4,5-trifluorophenyl)-6,7,8,9-tetrahydro-5H-imidazo[1,5-a][1,4]diazepine-1-carboxamide]
EC50: > 10000 nM

CCC/C=C/c1nc(C(=O)N[C@H](C(=O)NC)C(C)(C)C)c2n1CCN(C)C2 [Compound 268, (S,E)-N-(3,3-dimethyl-1-(methylamino)-1-oxobutan-2-yl)-7-methyl-3-(pent-1-enyl)-5,6,7,8-tetrahydroimidazo[1,5-a]pyrazine-1-carboxamide]
+/− HCB2: +

CNC(=O)[C@@H](NC(=O)c1nc(C=C(C)C)n2c1CN(C)CCC2)C(C)(C)C [Compound 377, (S)-N-(3,3-dimethyl-1-(methylamino)-1-oxobutan-2-yl)-8-methyl-3-(2-methylprop-1-enyl)-6,7,8,9-tetrahydro-5H-imidazo[1,5-a][1,4]diazepine-1-carboxamide]
+/− HCB2: +

COC(=O)[C@@H](NC(=O)c1nc(-c2ccccc2)n2c1CN(C)CCC2)C(C)(C)C [Compound 467, (S)-methyl 3,3-dimethyl-2-(8-methyl-3-phenyl-6,7,8,9-tetrahydro-5H-imidazo[1,5-a][1,4]diazepine-1-carboxamido)butanoate]
+/− HCB2: +

CNC(=O)[C@@H](NC(=O)c1nc(-c2cccc(-c3nnc(C)o3)c2)n2c1CN(C)CCC2)C(C)(C)C [Compound 407, (S)-N-(3,3-dimethyl-1-(methylamino)-1-oxobutan-2-yl)-8-methyl-3-(3-(5-methyl-1,3,4-oxadiazol-2-yl)phenyl)-6,7,8,9-tetrahydro-5H-imidazo[1,5-a][1,4]diazepine-1-carboxamide]
EC50: > 10000 nM

Where two headings read alike, the source gives them in different places.
